# According to PubChem BioAssay AID1745853 (National Center for Advancing Translational Sciences (NCATS), 2022):
# This is one part of the list. The main result of the screen is listed elsewhere. These columns were measured beside it and carry no call.
# What was measured:
# Experiment in all cases: Primary Screen for Target Class Profiling of Small Molecule Inhibitors of Methyltransferases
# [1] = target: Glycine N-methyltransferase (Homo sapiens) (UniProt Q14749); details: purified enzyme, MTase-Glo SAH luminescence; measured here: GNMT inhibition; at 40 µM; stronger effect = lower value
# How it was run: (§1)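 Each enzyme was assayed with SAM and its substrate. SAH formation detected by MTase-Glo luminescence; single-point 40 uM screen[…].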
# [2] = target: Guanidinoacetate N-methyltransferase (Homo sapiens) (UniProt Q14353); details: purified enzyme, MTase-Glo SAH luminescence; measured here: GAMT inhibition; at 40 µM; stronger effect = lower value
# How it was run: as §1
# [3] = target: Histamine N-methyltransferase (Homo sapiens) (UniProt P50135); details: purified enzyme, MTase-Glo SAH luminescence; measured here: HNMT inhibition; at 40 µM; stronger effect = lower value
# How it was run: as §1
# [4] = target: Nicotinamide N-methyltransferase (Homo sapiens) (UniProt P40261); details: purified enzyme, MTase-Glo SAH luminescence; measured here: NNMT inhibition; at 40 µM; stronger effect = lower value
# How it was run: as §1
# [5] = target: Phenylethanolamine N-methyltransferase (Homo sapiens) (UniProt P11086); details: purified enzyme, MTase-Glo SAH luminescence; measured here: PNMT inhibition; at 40 µM; stronger effect = lower value
# How it was run: as §1
# % is set by controls: 0 for no effect and ±100 for the full control effect.
SMILES,"activity change, negative = inhibition [1]","activity change, negative = inhibition [2]","activity change, negative = inhibition [3]","activity change, negative = inhibition [4]","activity change, negative = inhibition [5]"
Clc1ccc(-c2nnn3c2nc(NC2CCCC2)c2ccccc23)cc1,-1.92%,7.87%,2.19%,-1.84%,-1.09%
Cc1ccc(C)c(NC(=O)c2ncn3c2C(=O)N(C2CC2)C(C)(C(=O)NCc2ccc(F)cc2)C3)c1 (stereo not given),-2.45%,0.439%,11.4%,-0.289%,13.5%
Cc1ccnc(NS(=O)(=O)c2ccc(NC(=O)Nc3ccc(S(=O)(=O)Nc4nccc(C)n4)cc3)cc2)n1,-2.04%,-0.269%,5.18%,-7.9%,2.18%
Cc1ccc(C2(C(=O)N3CCC(n4nc(-c5ccccc5)oc4=O)CC3)CC2)cc1,-5.33%,-5.64%,-7.37%,-30%,-17.9%
Cc1ccc(C2=NC3(CCN(C(=O)c4n[nH]c5c4CCCC5)CC3)ON2)cc1,-12.9%,-9.51%,-11.9%,-24.8%,-10.4%
O=C(O)C1=CO[C@@H](O[C@@H]2O[C@H](CO)[C@@H](O)[C@H](O)[C@H]2O)[C@@H]2C(CO)=CC[C@H]12,5.67%,6.09%,11.8%,-5.33%,7.06%
CC1CCC2C(C)(C)CC(C)(CO)C2(O)C1C(=O)O (stereo not given),4.47%,1.75%,8.52%,-8.74%,4.75%
Cc1cc(N2C(=O)c3ccc(-c4ccco4)n3CC2(C)C(=O)NC2CCCC2)ccc1Br (stereo not given),-12.5%,-14.6%,-3.44%,-17.4%,-11.5%
C#CCCCn1cc(-c2cccc3c2N[C@@H](C)CC(=O)N3)cn1,-6.02%,-5.57%,-1.42%,-19.8%,0.079%
COc1ccc(NS(=O)(=O)c2ccc3c(c2)[C@H]2C=CC[C@H]2[C@@H](c2cccc(OC)c2OC)N3)cc1,-13.9%,-0.048%,-15%,-5.83%,-15.6%
CS(=O)(=O)NC[C@H]1Cn2ccnc2CO1,-0.852%,1.92%,2.06%,0.021%,7.64%
CCOc1ccc(C(=O)Cn2nc3n(CC(C)C)c(=O)c4ccc(C(=O)NC(C)CC)cc4n3c2=O)cc1 (stereo not given),1.03%,4.25%,1.5%,-1.23%,-1.76%
CCC(C)NC(=O)c1ccc2c(=O)n(C)c3nn(CC(=O)Nc4cccc(Cl)c4)c(=O)n3c2c1 (stereo not given),3.6%,0.512%,3.22%,2.3%,-2.46%
CCCn1c(=O)c2cc(F)ccc2n2c(SCC(=O)NC(C)CC)nnc12 (stereo not given),6.97%,0.416%,15.5%,12.6%,10%
CCOC(=O)N1CCN(Cc2nccn2CCOC)CC1,-3.48%,-8.32%,-1.35%,-9.52%,-6.26%
COc1ccc(-c2nc(-c3ccc(S(=O)(=O)N4CCC(C)CC4)cc3)no2)c(OC)c1,-6.73%,0.063%,-1.95%,-4.32%,-9.7%
CCCCc1ccc(CN2C[C@@H]3CC[C@H](C2)N(Cc2ccccn2)C3=O)s1,-8.47%,-2.84%,-4.25%,-10.1%,-17.8%
CC(C)NC(=O)Cn1nc2nc(Nc3ccc(F)cc3)ccn2c1=O,-8.84%,-0.514%,-3.42%,-5.9%,-8.57%
CCC(CC)C(=O)NCc1cccnc1Oc1cccc(C(F)(F)F)c1,-0.278%,-0.481%,1.44%,-1.6%,-12.8%
O=C1NC2(CCN(CC3CCCCC3)CC2)COc2ccccc21,-4.33%,-0.006%,-7.24%,-3.18%,3.63%
CC(NC(=O)c1n[nH]c2ccccc12)C(=O)N1CCN(c2ccccn2)CC1 (stereo not given),12.8%,1.91%,12.9%,7.08%,8.86%
CCc1cc2c(cc3n2CC(C)(C(=O)NC2CCC(C)CC2)N(Cc2ccc(C)cc2)C3=O)s1 (stereo not given),1.33%,0.659%,4.62%,-3.65%,1.4%
CC(C)(O)c1ccc2c(c1)ncn2-c1cccc(-c2ccccc2C#N)c1,-38.3%,-23.4%,-43.6%,-56.4%,-43%
CCCn1c(=O)c2ccccc2n2c(SCC(=O)Nc3ccccc3F)nnc12,-10.1%,1.52%,1.55%,-11.7%,-1.16%
O=[N+]([O-])c1cn2c(n1)OC[C@@H](OCc1ccc(-c3ccc(OC(F)(F)F)cc3)nc1)C2,-0.307%,-4.51%,9.68%,-22.4%,-6.94%
CN1C(=O)c2cc(C(=O)N3CCN(c4ncccn4)CC3)nn2CC1(C)C(=O)NC1CCCCCC1 (stereo not given),-5.57%,0%,-2.63%,-7.67%,-5.57%
CC1(C(=O)NC2CCCC2)Cn2c(cc3ccccc32)C(=O)N1C1CCCCC1 (stereo not given),-2.78%,1.93%,-2.4%,-5.55%,-4.39%
